Laboratory results taken from paper PMC12345308.
Residue numbers refer to the chain shown, from its start. These are yes or no findings as the source states them, for the method shown. In cells and extracts the contact can be indirect. Some results given as binding are weak or reduced against the parent protein; the word gives no strength. Sequences can lack the tags named with a protein.

Assays:
B1-2E-GFP (human) = molecular target: T1, B1-2E-GFP (human) (UniProt P98172); experiment: co-IP; GFP-trap beads from KLB lysates of HEK293T cells co-overexpressing EGFR and GFP-tagged EFNB1 constructs; EGFR detected by Western blot
T1 sequence: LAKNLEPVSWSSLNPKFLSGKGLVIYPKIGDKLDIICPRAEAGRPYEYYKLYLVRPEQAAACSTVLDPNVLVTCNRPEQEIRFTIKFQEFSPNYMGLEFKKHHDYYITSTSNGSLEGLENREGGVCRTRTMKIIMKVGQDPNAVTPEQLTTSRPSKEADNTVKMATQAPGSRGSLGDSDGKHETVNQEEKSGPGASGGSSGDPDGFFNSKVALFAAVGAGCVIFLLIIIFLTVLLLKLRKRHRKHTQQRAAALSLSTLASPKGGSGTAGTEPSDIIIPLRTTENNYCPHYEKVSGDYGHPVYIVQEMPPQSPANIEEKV

B1-2F-GFP (human) = molecular target: T2, B1-2F-GFP (human) (UniProt P98172); experiment: as above
T2 sequence: T1 sequence with E316F, E317F

EFNB1-GFP (human) [1] = molecular target: T3, EFNB1-GFP (human) (UniProt P98172); experiment: as above
T3 sequence: T1 sequence with E316Y, E317Y

EFNB1-GFP Y343E (human) = molecular target: T4, EFNB1-GFP Y343E (human) (UniProt P98172); experiment: as above
T4 sequence: T1 sequence with E317Y

EFNB1-GFP Y344E (human) = molecular target: T5, EFNB1-GFP Y344E (human) (UniProt P98172); experiment: as above
T5 sequence: T1 sequence with E316Y

MBP-B1-ICD (human) = molecular target: T6, MBP-B1-ICD (human) (UniProt P98172); experiment: pull-down; 10 ug MBP-B1-ICD fusions bound to amylose beads, 2 h at 4 °C with lysate of HEK293T cells overexpressing EGFR, pre-cleared with MBP beads; washes in 20 mM Tris-HCl pH 8, 200 mM NaCl, 1 mM EDTA, 0.5% IGEPAL; only the target purified
T6 sequence: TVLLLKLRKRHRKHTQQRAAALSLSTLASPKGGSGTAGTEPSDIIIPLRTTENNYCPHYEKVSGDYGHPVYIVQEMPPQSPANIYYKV

MBP-B1-ICD-dPBM (human) = molecular target: T7, MBP-B1-ICD-dPBM (human) (UniProt P98172); experiment: as above
T7 sequence: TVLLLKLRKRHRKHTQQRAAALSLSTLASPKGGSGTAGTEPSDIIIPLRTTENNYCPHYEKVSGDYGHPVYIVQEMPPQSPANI

EFNB1-GFP (human) [2] = molecular target: T3, EFNB1-GFP (human); experiment: co-IP; GFP-trap beads from KLB lysates of HEK293T cells overexpressing B1-GFP or GFP alone; endogenous EGFR detected by Western blot

| binding (B1-2E-GFP (human)) | binding (B1-2F-GFP (human)) | binding (EFNB1-GFP (human) [1]) | binding (EFNB1-GFP Y343E (human)) | binding (EFNB1-GFP Y344E (human)) | binding (MBP-B1-ICD (human)) | binding (MBP-B1-ICD-dPBM (human)) | binding (EFNB1-GFP (human) [2]) | Substance |
| --- | --- | --- | --- | --- | --- | --- | --- | --- |
| no binding | binds | binds | no binding | no binding | binds | no binding |  | Human EGFR, overexpressed (from UniProt P00533 25-1210) (receptor) |
|  |  |  |  |  |  |  | binds | epidermal growth factor receptor (EGFR), endogenous (from UniProt P00533 25-1210) |
